# In all, about 310,000 compounds went through this assay and about 14,000 (4.5%) showed an effect of 50% or more. The effect is printed as a negative number. The list shows a part of the results.
# Biological target: human ether-à-go-go-related gene (hERG) potassium channel (human, UniProt Q12809)
# Assay: primary screen, population patch clamp on CHO cells stably expressing hERG
# 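Also: peak tail current of the secondary pulse compared with the same well before compound.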
# Chain of human ether-à-go-go-related gene (hERG) potassium channel (Q12809 whole entry, looked up): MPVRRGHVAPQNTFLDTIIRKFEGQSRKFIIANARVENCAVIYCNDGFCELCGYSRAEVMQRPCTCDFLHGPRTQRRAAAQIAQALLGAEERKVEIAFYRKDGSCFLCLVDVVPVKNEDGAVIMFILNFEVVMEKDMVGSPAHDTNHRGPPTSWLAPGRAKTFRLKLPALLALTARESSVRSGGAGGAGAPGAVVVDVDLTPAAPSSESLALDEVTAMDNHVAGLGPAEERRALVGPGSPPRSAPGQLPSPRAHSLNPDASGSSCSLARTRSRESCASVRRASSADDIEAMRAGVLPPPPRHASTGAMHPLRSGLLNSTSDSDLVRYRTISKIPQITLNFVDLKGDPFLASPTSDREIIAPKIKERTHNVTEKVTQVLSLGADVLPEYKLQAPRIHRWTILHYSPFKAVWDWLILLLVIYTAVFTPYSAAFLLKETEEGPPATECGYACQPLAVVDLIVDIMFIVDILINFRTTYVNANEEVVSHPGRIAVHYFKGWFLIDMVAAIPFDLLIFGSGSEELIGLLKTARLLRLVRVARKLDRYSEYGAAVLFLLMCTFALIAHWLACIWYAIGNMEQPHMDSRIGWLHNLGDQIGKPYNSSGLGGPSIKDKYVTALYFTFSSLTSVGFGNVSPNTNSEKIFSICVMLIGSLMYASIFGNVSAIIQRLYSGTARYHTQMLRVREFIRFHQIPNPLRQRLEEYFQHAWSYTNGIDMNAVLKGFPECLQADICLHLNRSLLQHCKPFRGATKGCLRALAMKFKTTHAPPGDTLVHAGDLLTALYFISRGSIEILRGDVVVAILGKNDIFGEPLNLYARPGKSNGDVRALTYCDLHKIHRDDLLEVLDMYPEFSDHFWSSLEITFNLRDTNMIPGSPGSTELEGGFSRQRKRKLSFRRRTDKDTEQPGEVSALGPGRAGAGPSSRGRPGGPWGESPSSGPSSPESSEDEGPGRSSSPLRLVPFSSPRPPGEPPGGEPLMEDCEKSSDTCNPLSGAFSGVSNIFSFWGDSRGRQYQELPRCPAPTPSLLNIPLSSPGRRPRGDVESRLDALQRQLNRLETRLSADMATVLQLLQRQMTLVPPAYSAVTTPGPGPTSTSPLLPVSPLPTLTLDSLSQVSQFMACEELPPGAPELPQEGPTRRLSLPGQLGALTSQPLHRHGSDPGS
row,Structure (SMILES),"hERG current change (%, negative = inhibition) at 10uM [%]"
1,COc1ccc(NC(=O)C2CCN(c3cnccn3)CC2)cc1OC,15.5
2,COc1ccc2c(c1)[C@H]1[C@H](CO2)[C@H](c2ccccc2)[C@]2(C)C(=O)Nc3ccccc3C(=O)N12,-15.9
3,O=C(Nc1ccc2c(c1)OCCO2)c1ccc(Br)cc1,-3.81
4,CCCN(CCC(=O)Nc1cc(OC)cc(OC)c1)CC1CC1.Cl,-12.1
5,CCN1CCN(C(=O)c2cc3cc(F)ccc3[nH]2)CC1,-65
6,O=C(C1CCCN(S(=O)(=O)c2cc(Cl)ccc2Cl)C1)N1CCCCCC1 (stereo not shown),-62.4
7,O=C(N/N=C/c1ccc(O)c(O)c1)C1c2ccccc2Oc2ccccc21,-13.5
8,O=C1C(=O)N(CCS(=O)(=O)c2ccccc2)c2ccccc21,14.8
9,COc1ccc(C(NC(=O)CNC(C)=O)C(=O)Nc2ccc(C(C)C)cc2)cc1 (stereo not shown),-5.76
10,CN1CCC(C(=O)N2CCCC(C(=O)c3ccc4c5c(cccc35)CC4)C2)CC1 (stereo not shown),-61.1
11,COc1ccc(C2/C(=C(/O)c3ccccc3)C(=O)C(=O)N2CCCN2CCOCC2)cc1 (stereo not shown),22.7
12,Oc1ccc2ccccc2c1C=Nc1ccccc1-c1nc2ccccc2[nH]1,-5.84
13,COc1cc(C(=O)N2CCC(NC(=O)C(Cc3ccc(C(C)C)cc3)NC(C)=O)CC2)cc(OC)c1OC (stereo not shown),-3.73
14,CCC1CCCCN1CCCNC(=O)c1cn(CC(C)C)c(=O)c2cc(OC)c(OC)cc12 (stereo not shown),-6.7
15,COC(=O)C1=C(CN2CCc3ccccc32)NC(=O)NC1c1cc(C)ccc1C (stereo not shown),-2.97
16,CCOC(=O)C(Cc1c(F)cccc1F)(NC(C)=O)C(=O)OCC,8.41
17,Cc1ccc(/C=C/C(=O)NC(=S)N2CCN(c3ccc(F)cc3)CC2)cc1,10.4
18,COc1cccc(N2[C@@H](CC(=O)O)c3ccc(/C=C/C(=O)O)cc3S2(=O)=O)c1,25.3
19,O=C1CC(C2CCCO2)C(=O)N1c1ccc(Cl)c(Cl)c1 (stereo not shown),-8.45
20,CCN(CC)c1ccc(C=Nc2ccc(N(C)C)cc2)c(O)c1,14.8
21,CCOC(=O)C1=NOC(COc2ccccc2C=O)C1 (stereo not shown),3.3
22,CCOC(=O)c1cc2cc(C)ccc2[nH]1,4.23

row,Structure (SMILES),"hERG current change (%, negative = inhibition) at 10uM [%]"
1,Cc1ccc(S(=O)(=O)/N=C(\N)c2ccc(F)cc2)cc1,13.8
2,Cc1ccc(S(=O)(=O)N(C)/C(=N/S(=O)(=O)c2ccccc2)c2ccccc2)cc1,-13.8
3,Cc1c(C(C)O)nnn1-c1nonc1N (stereo not shown),-2.42
4,Cc1cc(C)n2nc(-c3ccsc3-n3c(C)ccc3C)cc2n1,4.45
5,CCOc1ccc2nc(NC(=O)CSc3nnnn3C3CCCCC3)sc2c1,-1.6
6,O=C(Nc1ccc2c(c1)OCO2)c1ccc(Br)o1,0.436
7,C=CCN1N=C(/C=C/c2ccccc2)CCC1=O,-4.77
8,CCOC(=O)N1CCN(c2c(NCCN(C)Cc3ccccc3)c(=O)c2=O)CC1,0.413
9,NS(=O)(=O)c1ccc(CCNC(=O)CN2CCN(c3ccccc3F)CC2)cc1,18.7
10,COc1ccc(/C=C/C(=O)NC(C)(C)C)cc1S(=O)(=O)N1CCOCC1,-15.2
11,Cc1ccc(NC(=O)c2sccc2-n2cccc2)c(Cl)c1,-8.15
12,COC(=O)c1ccc(OCCN2CCCCCC2)cc1.O=C(O)C(=O)O,-1.51
13,OCCC1CN(Cc2cccc3nccnc23)CCN1Cc1ccc(F)cc1 (stereo not shown),-30.8
14,Cc1cc(C)c2[nH]c(C(=O)Nc3ccc4c(c3)OCO4)cc2c1,11.3
15,C[C@]12CC[C@H](O)C[C@H]1CC[C@@H]1[C@@H]2CC[C@]2(C)[C@@H](C3=CC(=O)OC3)CC[C@]12O,15.8
16,[Br-].c1cnc(N2CC[N+]3(CCCC3)CC2)nc1,4.47
17,O=C1/C(=C\c2cccc([N+](=O)[O-])c2O)SC(=S)N1Cc1ccccc1,28
18,O=C(Cc1ccsc1)NNC(=O)c1cccc(Cl)c1,6.9
19,O=C(NCc1ccc(Cl)cc1)c1cc2ccccc2oc1=O,6.97
20,COc1ccc(C)cc1NC(=O)C(=O)NCc1ccncc1,-10.6
21,CC1=C(C(=O)OC2CCCCC2)C(c2ccccc2F)NC(=O)N1 (stereo not shown),1.77
